Reference: patent US20250092147A1 (PEPMAB B V, published 2025)

B1: humanized anti-CCR7 antibody variant 21-17 (antibody, human IgG1)
heavy: EVQLVESGGGLVKPGGSLRLSCAAPGLTFRDFAMSWVRQAPGKGLEWVSTISSGGFYTYYPDSVKGRFTISRDNAANSLYLQMNSLRAEDTAVYYCVRRAYRYDGTGDYSALDYWGQGTLVTVSS[human IgG1 constant region not given here]
VL: DIQMTQSPSSLSASVGDRVTITCRASQDIGPSLNWYQQKPGKAPKRLIYATSNLDSGVPSRFSGSGSGTDFTLTISSLQPEDFATYYCLQFASSPLTFGQGTKVEIK
B2: humanized anti-CCR7 antibody variant 21-AE (antibody, human IgG1)
heavy: EVQLVESGGGLVKPGGSLRLSCAAPGLTFRDFAMSWVRQAPGKGLEWVSTISSGGFYTYYPDSVKGRFTISRDNAANSLYLQMNSLRAEDTAVYYCVRRAYRYDGTGDYSALDYWGQGTLVTVSS[human IgG1 constant region with changes not given here]
VL: B1 VL

What was measured:
human CCR7 (human) [1] = biological target: human CCR7 (human) (UniProt P32248); assay: FACS on CLL sample 1, membrane expressed CCR7; rank among the six variants (higher = better by the text)
human CCR7 (human) [2] = biological target: human CCR7 (human) (UniProt P32248); assay: FACS on CLL sample 2, membrane expressed CCR7; rank among the six variants (higher = better by the text)
human CCR7 (human) [3] = biological target: human CCR7 (human) (UniProt P32248); assay: FACS on TPLL sample 3, membrane expressed CCR7; rank among the six variants (higher = better by the text)
human CCR7 (human) [4] = biological target: human CCR7 (human) (UniProt P32248); assay: FACS on TPLL sample 1, membrane expressed CCR7; rank among the six variants (higher = better by the text)
human CCR7 (human) [5] = biological target: human CCR7 (human) (UniProt P32248); assay: FACS on CLL sample 3, membrane expressed CCR7; rank among the six variants (higher = better by the text)
human CCR7 (human) [6] = biological target: human CCR7 (human) (UniProt P32248); assay: FACS on TPLL sample 2, membrane expressed CCR7; rank among the six variants (higher = better by the text)
human CCR7 (human) [7] = biological target: human CCR7 (human) (UniProt P32248); assay: FACS on healthy donor cells, membrane expressed CCR7; rank among the six variants (higher = better by the text)

UniProt P32248, sequence (P32248 25-378): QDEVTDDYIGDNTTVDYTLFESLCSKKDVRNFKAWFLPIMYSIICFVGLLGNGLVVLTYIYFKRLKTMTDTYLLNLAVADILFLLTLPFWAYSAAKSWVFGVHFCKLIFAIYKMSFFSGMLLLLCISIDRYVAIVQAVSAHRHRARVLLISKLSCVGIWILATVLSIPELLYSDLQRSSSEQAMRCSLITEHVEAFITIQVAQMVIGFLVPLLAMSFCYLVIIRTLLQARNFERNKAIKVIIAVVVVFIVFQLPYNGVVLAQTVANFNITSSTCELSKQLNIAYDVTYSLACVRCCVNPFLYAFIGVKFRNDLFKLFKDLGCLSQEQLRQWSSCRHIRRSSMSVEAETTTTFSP

Binder	ranking of relative performance, FACS CLL# 1 (human CCR7 (human) [1]) [rank]	ranking of relative performance, FACS CLL# 2 (human CCR7 (human) [2]) [rank]	ranking of relative performance, FACS TPLL# 3 (human CCR7 (human) [3]) [rank]	ranking of relative performance, FACS TPLL# 1 (human CCR7 (human) [4]) [rank]	ranking of relative performance, FACS CLL# 3 (human CCR7 (human) [5]) [rank]	ranking of relative performance, FACS TPLL# 2 (human CCR7 (human) [6]) [rank]	ranking of relative performance, FACS HD (human CCR7 (human) [7]) [rank]
B1	2	1	1	2	1	2	1
B2	1	2	2	1	2	1	2
